Results taken from PubChem BioAssay AID1030 (National Center for Advancing Translational Sciences (NCATS), 2008).
Out of some 220,000 compounds screened, about 16,000 (7.3%) were called active. Inconclusive means that the source gave no clear call. Such entries were picked first, then a sample of the others. Calls come from the whole dose curve; as a rule, active = well fitted inhibition curve with a large enough effect (not every such curve was filed as active); inconclusive = small, poorly fitted or top-dose-only effect, or another doubt; inactive = no such curve, though single readings can be large or run the other way. Where the call is inconclusive, the potency comes from a doubtful curve fit.

Molecular target: Aldehyde dehydrogenase 1A1 (Homo sapiens) (UniProt P00352)
UniProt P00352, sequence (P00352 whole entry, looked up): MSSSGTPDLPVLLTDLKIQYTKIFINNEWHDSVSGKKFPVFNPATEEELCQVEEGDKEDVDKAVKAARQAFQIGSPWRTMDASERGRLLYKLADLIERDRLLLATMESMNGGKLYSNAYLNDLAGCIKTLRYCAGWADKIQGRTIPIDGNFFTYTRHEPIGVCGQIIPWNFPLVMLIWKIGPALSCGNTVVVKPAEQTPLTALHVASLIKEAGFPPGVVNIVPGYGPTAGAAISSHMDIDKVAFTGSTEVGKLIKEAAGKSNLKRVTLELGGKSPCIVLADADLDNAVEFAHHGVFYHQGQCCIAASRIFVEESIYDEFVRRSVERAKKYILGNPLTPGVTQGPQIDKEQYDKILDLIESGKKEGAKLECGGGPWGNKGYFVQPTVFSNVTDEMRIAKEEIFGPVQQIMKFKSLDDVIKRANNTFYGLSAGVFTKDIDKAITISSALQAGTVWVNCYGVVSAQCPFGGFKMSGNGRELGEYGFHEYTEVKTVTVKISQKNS
Assay: qHTS Assay for Inhibitors of Aldehyde Dehydrogenase 1 (ALDH1A1);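 for activity, negative = inhibition: plate controls were no enzyme wells and a reference inhibitor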
Settings: Purified ALDH1A1, NADH fluorescence, propionaldehyde substrate; series mostly up to 75.3 µM; activity, negative = inhibition: at the top concentration
Potency is the fitted concentration of half-maximal effect; tags give direction and shape of the fitted curve.

Potency, inconclusive:
CCCOc1ccc(N2C(=O)CC(NCCNc3ccc(S(=O)(=O)CC)cc3)C2=O)cc1 (stereo unspecified) 39.8 µM [inhibitor, single point], CN1CCCN(C(=O)c2cc(=O)[nH]c3ccccc23)c2nc3ccccc3nc21 14.1 µM [inhibitor, partial curve], O=C(CCS(=O)(=O)c1cccc2nonc12)NCCc1ccccc1Cl 23.8 µM [inhibitor, single point], O=C(/C=C/c1ccc([N+](=O)[O-])cc1)Nc1ncc([N+](=O)[O-])s1 25.1 µM [inhibitor, partial curve], Cc1ccc(-c2nnc(N3CCN(C(=O)Cn4c(=O)n(C)c5ccccc54)CC3)c3ccccc23)cc1 39.8 µM [inhibitor, single point], Cc1ccc(OCCCC(=O)Nc2ccc3c(c2)OCO3)cc1 28.2 µM [inhibitor, partial curve], Cc1nc(NCCCO)c(C#N)c2c1COC(C)(C)C2 25.1 µM [inhibitor, partial curve], CCCCn1c(SCC2CCCCO2)nc2cc(S(N)(=O)=O)ccc21 (stereo unspecified) 39.8 µM [inhibitor, single point], CCC(=O)OCCNc1nc(-c2ccccc2)nc2ccccc12 31.6 µM [inhibitor, partial curve], COc1ccc(C(=O)NNC(=O)CCn2nnc(-c3ccc(C)cc3)n2)cc1OC 44.7 µM [inhibitor, single point], CC(C)[C@@H](CC(=O)N[C@@H]1CCNC[C@H]1C(=O)N[C@H](CC(=O)N[C@@H](CCC(=O)O)CC(=O)O)Cc1c[nH]c2ccccc12)NC(=O)C[C@H](Cc1c[nH]c2ccccc12)NC(=O)[C@@H]1CNCC[C@H]1N 39.8 µM [inhibitor, single point]

Potency, active:
CC(C)(C)c1ccc(S(=O)(=O)NNC(=O)C2CCN(Cc3cccc(F)c3)CC2)cc1 2.24 µM, O=S1(=O)C=C(Oc2ccc3ccccc3c2)c2ccccc21 10 µM

activity, negative = inhibition, inactive:
N#Cc1cc(N)ccc1Sc1ccc(Cl)cc1 -6.26%, Cc1cc(C)c(S(=O)(=O)N(CC(=O)O)CC(=O)O)c(C)c1 5.69%, CSc1ccccc1NC(=O)CN(c1ccccc1Br)S(C)(=O)=O 7.92%, COc1ccccc1NC(=O)Nc1cccnc1 -7.64%, CCN(CC)c1c([N+](=O)[O-])c(=O)sc2ccccc12 -2.65%, NS(=O)(=O)c1ccc(NC(=O)Nc2ccccc2F)cc1 3.28% [at 13.5 µM], C=CCn1c(SCC(=O)N2CCCCC2)nnc1-c1ccncc1 -13.5%, COc1ccc2[nH]cc(CCNc3ncnc4ccc(-c5cccc(C#N)c5)cc34)c2c1 -6.72%
